# Test results taken from PubChem BioAssay (NCATS).
# The inconclusive results got no clear call from the source; some entries with a clear call stand among them for comparison. Potencies of inconclusive entries are doubtful fits and often do not repeat. The source made the active and inactive calls.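 Rule for the calls: active = compounds whose dose series gives a full or clear partial fitted curve of increased nuclear translocation; inconclusive = weak partial curve or effect only at the top dose; inactive = no dose-dependent translocation response.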
# Target: Glucocorticoid receptor (Homo sapiens) (UniProt P04150)
# Assay: GR-GFP Redistribution (AID 450)
# Details: U2OS GR-GFP nuclear translocation, laser cytometry, 2 h
# Description: NIH Molecular Libraries Screening Centers Network [MLSCN]
# NIH Chemical Genomics Center [NCGC]
# The glucocorticoid receptor (GR) Redistribution assay (BioImage) enables the visualization of GR cytoplasmic to nuclear translocation by the use of a GR-GFP fusion. GR is normally cytosolic, however ligands such as dexamethasone, cause nuclear translocation where the protein binds to response elements and interacts with various co-factors to modulate transcription. Because both functional agonists and antagonists can induce nuclear translocation, this assay can detect ligands regardless of their effects on gene expression. GR-GFP expressing U20S cells were used here. Dexamethasone was the positive control for translocation and data normalization. Detection of nuclear translocation was performed in 1536-well plates using the Acumen laser scanning plate cytometer (TTP LabTech). Validation of this assay and a detailed protocol have been described.
# NCGC Assay Protocol Summary:
# GR-GFP U2OS cells were maintained in DMEM with Glutamax and high glucose, 1% v/v penicillin-streptomycin, and 0.5 mg/mL Geneticin. For cell culture, 10% […] fetal bovine serum (FBS) was used (Invitrogen #26140-079). For cell plating 10% dextran, charcoal-stripped FBS (Hyclone SH30068.03) was used. U2OS cells were trypsin treated, suspended in medium, and passed through a 40 um basket filter. The cells were seeded at 600 cells/5 uL/well into clear-bottom black sided 1536-well plates and incubated for approximately 20 hrs, 37degC, 5%, CO2 in a tissue culture incubator. Twenty-three nL of compound was delivered by pin tool and the plates were incubated as above for 2 hrs. The compounds were tested as a 7-point titration ranging from 46 uM to 0.6 nM. The cells were fixed using the Kalypsys Washer/Dispenser station. The fixing protocol involved aspiration of the cell media, addition of 6 uL/well of PBS, aspiration of PBS, addition of 5uL/well of 100% methanol, aspiration of methanol, and addition of 3 uL/well PBS with 1.5 uM propidium iodide (PI). The plates were read by the Acumen Explorer using a 1 x 8 um scan of the whole well area. PI fluorescence triggered the collection of PI and GFP signals. A nuclei population was defined by a 10 to 100 um width and depth filter that eliminated small and large fluorescent particles. Two subpopulations of nuclei were then defined by peak intensity of GFP fluorescence to obtain translocated and untranslocated objects. The number of translocated objects was used for data normalization.
# Keywords: NIH Roadmap, MLSCN, MLI, MLSMR, sOGT, qHTS, NCGC
# Potency is the fitted concentration of half-maximal effect; tags give direction and shape of the fitted curve.
# Chain of UniProt P04150 (P04150 whole entry, looked up): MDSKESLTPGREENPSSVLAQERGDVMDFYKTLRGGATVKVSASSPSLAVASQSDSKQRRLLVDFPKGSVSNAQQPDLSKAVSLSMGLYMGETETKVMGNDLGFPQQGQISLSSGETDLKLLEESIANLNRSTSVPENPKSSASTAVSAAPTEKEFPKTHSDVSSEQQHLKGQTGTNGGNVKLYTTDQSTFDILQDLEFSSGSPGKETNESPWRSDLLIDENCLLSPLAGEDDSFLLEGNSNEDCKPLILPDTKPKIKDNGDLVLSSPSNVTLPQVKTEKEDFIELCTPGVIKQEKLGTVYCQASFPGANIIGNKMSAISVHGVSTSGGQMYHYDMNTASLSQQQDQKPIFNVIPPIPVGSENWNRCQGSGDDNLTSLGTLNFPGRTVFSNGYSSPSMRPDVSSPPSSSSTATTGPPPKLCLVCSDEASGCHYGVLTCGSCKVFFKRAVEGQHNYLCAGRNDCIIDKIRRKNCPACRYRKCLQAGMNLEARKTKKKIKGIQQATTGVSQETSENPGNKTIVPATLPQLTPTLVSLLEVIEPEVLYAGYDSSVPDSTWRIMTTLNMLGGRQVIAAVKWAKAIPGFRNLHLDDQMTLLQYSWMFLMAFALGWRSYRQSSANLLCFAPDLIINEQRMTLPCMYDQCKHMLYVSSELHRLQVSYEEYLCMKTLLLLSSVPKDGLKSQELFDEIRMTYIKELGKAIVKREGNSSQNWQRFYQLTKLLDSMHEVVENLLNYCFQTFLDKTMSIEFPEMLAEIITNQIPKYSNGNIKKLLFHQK
row,Structure (SMILES),Potency
1,COc1ccccc1-c1nccc(NCc2cccc(C)c2)n1,inconclusive: 25.3 µM [partial curve]
2,Cc1cc(N)c2ccccc2[n+]1CCCCCCCCCCCCCC[n+]1c(C)cc(N)c2ccccc21,inconclusive: 52.3 µM [single point]
3,COc1ccc(CNc2nc(-c3ccccc3OC)nc3ccccc23)c(OC)c1,inactive: > 46 µM
4,CS(=O)(=O)Nc1cccc(-c2cc(NCc3ccccc3)ncn2)c1,inconclusive: 30.6 µM [single point]
5,COc1ccc2[nH]cc(CCNc3ncnc4ccc(-c5ccc6c(c5)OCO6)cc34)c2c1,inconclusive: 25.9 µM [single point]
6,CCCn1c(=O)[nH]c2nc(-c3ccc(S(=O)(=O)O)cc3)[nH]c2c1=O,inconclusive: 45.9 µM [single point]
7,C=CC1=C(C)C2=NC1=CC1=NC(=CC3=NC(=CC4=NC(=C2)C(C)=C4CCC(=O)O)C(CCC(=O)O)=C3C)C(C=C)=C1C.[Zn],inconclusive: 41.4 µM [partial curve]
8,C[C@@]12C(=O)OC(=O)[C@]1(C)[C@H]1CC[C@@H]2O1,active: 2.63 µM
9,COc1cc(/C=C(\C#N)C(N)=O)cc(CSc2nc3ccccc3s2)c1O,inconclusive: 82 µM [partial curve]
10,COc1ccc(CCN(C)CCc2ccc(OC)c(OC)c2)cc1OC,inactive: > 46 µM
11,COc1ccccc1-c1ccc2ncnc(N3CCOCC3)c2c1,inactive: > 46 µM
12,CCCCCCCCCCCCC/C=C\[C@@H](O)[C@@H](N)CO,inconclusive: 30.1 µM [partial curve]
13,CCNc1ncc2nc(-c3ccc(OC)cc3)c(=O)n(C)c2n1,inconclusive: 8.6 µM [single point]
14,COc1cccc(-c2ccc3ncnc(NC4CC4)c3c2)c1,inconclusive: 33.9 µM [single point]
15,CN(C)Cc1ccccc1-c1nc(NC2CC2)c2ccccc2n1,inactive: > 46 µM
16,COc1cccc(-c2nc(NC3CCNCC3)c3ccccc3n2)c1,inconclusive: 42 µM [single point]
17,O=[N+]([O-])c1cccc2c[nH]nc12,inconclusive: 47.3 µM [single point]
18,N#Cc1cccc(-c2cncnc2-n2ccnc2)c1,inconclusive: 45.3 µM [single point]
19,CSc1ccc2c(c1)[C@H](N1CCN(C)CC1)Cc1ccccc1S2,inconclusive: 27 µM [partial curve]
20,COc1ccccc1CNc1nc(-c2cccnc2)nc2ccccc12,inconclusive: 43.6 µM [single point]

row,Structure (SMILES),Potency
1,COc1cccc(Nc2ncc3nc(-c4cccs4)c(=O)n(-c4ccccc4)c3n2)c1,inconclusive: 9.01 µM [single point]
2,Cc1cccc(CNc2ccnc(-c3ccccc3CN(C)C)n2)c1,inconclusive: 35.3 µM [partial curve]
3,COc1c(O)cc2oc3cc(O)c(CC=C(C)C)c(O)c3c(=O)c2c1CC=C(C)C,inconclusive: 47.8 µM [single point]
4,C[C@H]1C=C2C=C[C@H](C)[C@H](CC[C@@H]3C[C@@H](O)CC(=O)O3)[C@H]2[C@@H](OC(=O)[C@@H](C)CCO)C1,inconclusive: 34.6 µM [partial curve]
5,COc1ccc(Oc2ncc3nc(C)c(=O)n(Cc4cccs4)c3n2)cc1,inconclusive: 5.84 µM [single point]
6,N[C@H](C(=O)O)[C@@H]1[C@@H](C(=O)O)C1(F)F,inconclusive: 32.5 µM [partial curve]
7,COc1ccc(-c2nc3cnc(N(C)C)nc3n(CCc3ccccc3)c2=O)cc1,inconclusive: 8.5 µM [single point]
8,N#CCCn1c(=O)c(-c2ccccc2)nc2cnc(Nc3ccccc3)nc21,inconclusive: 4.23 µM [single point]
9,CC(C)=CCc1c(O)cc(O)c2c1O[C@H](c1ccccc1)CC2=O,inconclusive: 49.4 µM [single point]
10,c1cncc(-c2ccc3ncnc(NC4CCNCC4)c3c2)c1,inactive: > 46 µM
11,COC(=O)C1=C(C)NC(C)=C([N+](=O)[O-])[C@@H]1c1ccccc1C(F)(F)F,inconclusive: 14.3 µM [partial curve]
12,O=C(O)c1ccccc1Nc1cccc(OCc2ccc3ccccc3n2)c1,inconclusive: 49.4 µM [single point]
13,COCCNc1ncnc2ccc(-c3ccccc3C(F)(F)F)cc12,inconclusive: 35 µM [single point]
14,CCCCC(=O)NCCc1c(Cc2ccccc2)[nH]c2ccccc12,inconclusive: 34.4 µM [partial curve]
15,O=c1c(CCc2ccccc2)nc2cnc(N3CCOCC3)nc2n1C1CC1,inconclusive: 6.16 µM [single point]
16,CN(C)CCCCSC(=N)N,inconclusive: 51 µM [single point]
17,Clc1ccccc1-c1nc(Nc2ccncc2)c2ccccc2n1,inconclusive: 21 µM [partial curve]
18,C[C@]12C=CC(=O)C=C1CC[C@@H]1[C@H]3C[C@@H](O)[C@](O)(C(=O)CO)[C@@]3(C)C[C@H](O)[C@]12F,active: 0.108 µM
19,CN1CCN(c2ccnc(-c3ccoc3)n2)CC1,inconclusive: 49.7 µM [single point]
20,C[C@@H](NCc1cc(Br)cc2[nH]c(=O)c(=O)[nH]c12)P(=O)(O)O,active: 0.264 µM
